The whole screen tested about 150,000 compounds, of which about 540 (0.36%) showed an effect of 50% or more. Some of the results follow.
Test system: Plasmodium falciparum
Assay: Primary screen in NF54 nanoGlo assay, in single point, at 2uM, 72h; a lower Z score goes with more inhibition
Format: functional, Erythrocyte
Settings: timepoint 72 hour

| Compound | % Inhibition | Z score |
| --- | --- | --- |
| Cc1cccc(CN2CCC(NC(=O)c3ccnc(N4CCO[C@@H](C)C4)c3)CC2)c1 | 4% | -0.75 |
| CCN1CCC(Nc2ccnc(NC3CCN(CC)CC3)n2)CC1 | 8% | -1.81 |
| Cc1cc(N2CCCCC2)nc(NCCNC(=O)Cc2c[nH]c3ccccc23)n1 | 3% | -0.57 |
| FC(F)c1nnc2ccc(NC3CCN(C[C@H]4CCOC4)CC3)nn12 | -4% | 0.73 |
| c1ccc(-c2cnc(N3CCC(c4c[nH]c5ncccc45)CC3)s2)cc1 | -3% | 0.52 |
| c1cc(CNCCCc2nc3ccccc3[nH]2)c2c(c1)OCCO2 | -15% | 2.55 |
| Cc1c(C(=O)N[C@H]2C[C@@H](c3cc(=O)[nH]c(N)n3)C2)[nH]c2ccc(F)cc12 | -1% | 0.18 |
| O=C(NCC1CC1)c1cc2c(OCc3ccc(Cl)cc3)cccc2[nH]1 | 51% | -9 |
| CC(C)c1ccc(C#N)c(NCCCN2CCC[C@H](O)C2)n1 | -2% | 0.51 |
| CN1CCN(C2(CNC(=O)[C@H]3CC34CCNCC4)CCCC2)CC1 | -7% | 1.47 |
| CNc1nc(N2CCN(CC(=O)NC3CCCCC3)CC2)nc2ccccc12 | 80% | -14.07 |
| CC(C)c1noc(C2CCN(Cc3cc(O)c4cccc(F)c4n3)CC2)n1 | -3% | 0.54 |
| COc1ccc2nc3cc(Cl)ccc3c(O)c2c1 | 65% | -9.86 |
| Cc1ccc2nc(CCCNC3CCN(c4cc(C)nc(N)n4)CC3)oc2c1 | 40% | -6.03 |
| CN1CCN(C2COCC2NC2CCN(C(=O)c3ccncc3)CC2)CC1 (stereo unspecified) | -4% | 0.85 |
| COC[C@H](CO)NCCC(CC(C)(C)C)NC(=O)OC(C)(C)C (stereo partly specified) | -5% | 1.17 |
| O=C(NCCn1cc(-c2ccoc2)cn1)c1cc2ccccc2[nH]1 | -2% | 0.31 |
| COc1ccc2oc(C(C)NC(=O)N3CCOC(c4ccc(F)c(F)c4)C3)c(C)c2c1 (stereo unspecified) | -4% | 0.71 |
| CCOc1ccc2nc(C)c(CCC(C)=O)c(O)c2c1 | 2% | -0.31 |
| C[C@@H](c1cccc(-c2[nH]nc3ncccc23)c1)N1CCCC1 | -7% | 1.25 |
| CC(C)n1ncnc1-c1cccc(C(=O)N(C)Cc2cc(C3CC3)on2)c1 | -4% | 0.83 |
| COc1cnc(NC(=O)NCC[C@@]2(O)C(=O)Nc3ccccc32)s1 | 1% | -0.24 |
| CC(=O)NC(C)(C)c1noc(-c2cnn(-c3ccc(Br)cc3)c2)n1 | -16% | 2.79 |

From ChEMBL document CHEMBL5308541, “MAIP: An Open-Source Tool to Enrich High-Throughput Screening Output and Identify Novel, Druglike Molecules with Antimalarial Activity” (ACS Med Chem Lett, 2023)
